The other results are listed elsewhere or left out.
What was measured:
Test in all cases: glycan array binding signal (z-score within array); higher = stronger binding
Settings in all cases: glycan notation: IUPAC condensed, linker removed
Gal(b1-2)Gal = target: Gal(b1-2)Gal
How it was run: (§1)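 Glycan array binding is given as a within-array Z-score, which can be read as non-binding when negative. The arrays, 3228 of them, came from the Consortium for Functional Glycomics database and were retained only where the protein sequence was available. Z-scores were averaged across arrays of the same protein sequence at different concentrations or buffers and across linkers.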

Gal(b1-3)Gal = target: Gal(b1-3)Gal
How it was run: as §1

Gal(b1-3)Gal(b1-4)GlcNAc = target: Gal(b1-3)Gal(b1-4)GlcNAc
How it was run: as §1

Gal(b1-3)GalNAc = target: Gal(b1-3)GalNAc
How it was run: as §1

[1] = target: Gal(b1-3)GalNAc(b1-3)Gal(a1-4)Gal(b1-4)Glc
How it was run: as §1

[2] = target: Gal(b1-3)GalNAc(b1-4)Gal(b1-4)Glc
How it was run: as §1

[3] = target: Gal(b1-3)GalNAc(b1-4)[Neu5Ac(a2-3)]Gal(b1-4)Glc
How it was run: as §1

Gal(b1-3)GlcNAc = target: Gal(b1-3)GlcNAc
How it was run: as §1

[4] = target: Gal(b1-3)GlcNAc(b1-2)Man(a1-3)[Gal(b1-3)GlcNAc(b1-2)Man(a1-6)]Man(b1-4)GlcNAc(b1-4)GlcNAc
How it was run: as §1

[5] = target: Gal(b1-3)GlcNAc(b1-3)Gal(b1-3)GlcNAc
How it was run: as §1

[6] = target: Gal(b1-3)GlcNAc(b1-3)Gal(b1-4)Glc
How it was run: as §1

[7] = target: Gal(b1-3)GlcNAc(b1-3)Gal(b1-4)GlcNAc
How it was run: as §1

[8] = target: Gal(b1-3)[Fuc(a1-4)]GlcNAc
How it was run: as §1

[9] = target: Gal(b1-3)[Fuc(a1-4)]GlcNAc(b1-3)Gal(b1-3)[Fuc(a1-4)]GlcNAc
How it was run: as §1

[10] = target: Gal(b1-3)[Fuc(a1-4)]GlcNAc(b1-3)Gal(b1-4)GlcNAc
How it was run: as §1

[11] = target: Gal(b1-3)[Fuc(a1-4)]GlcNAc(b1-3)Gal(b1-4)[Fuc(a1-3)]GlcNAc
How it was run: as §1

[12] = target: Gal(b1-3)[GlcNAc(b1-6)]GalNAc
How it was run: as §1

[13] = target: Gal(b1-3)[Neu5Ac(a2-6)]GalNAc
How it was run: as §1

[14] = target: Gal(b1-3)[Neu5Ac(a2-6)]GlcNAc(b1-6)Gal(b1-4)Glc
How it was run: as §1

[15] = target: Gal(b1-3)[Neu5Ac(b2-6)]GalNAc
How it was run: as §1

[16] = target: Gal(b1-4)GalNAc(a1-3)[Fuc(a1-2)]Gal(b1-4)GlcNAc
How it was run: as §1

[17] = target: Gal(b1-4)GalNAc(b1-3)[Fuc(a1-2)]Gal(b1-4)GlcNAc
How it was run: as §1

Gal(b1-4)Glc = target: Gal(b1-4)Glc
How it was run: as §1

Gal(b1-4)Glc6S = target: Gal(b1-4)Glc6S
How it was run: as §1

Gal(b1-4)GlcNAc = target: Gal(b1-4)GlcNAc
How it was run: as §1

[18] = target: Gal(b1-4)GlcNAc(a1-6)Gal(b1-4)GlcNAc
How it was run: as §1

[19] = target: Gal(b1-4)GlcNAc(b1-2)Man(a1-3)[Gal(b1-4)GlcNAc(b1-2)Man(a1-6)]Man(b1-4)GlcNAc(b1-4)GlcNAc
How it was run: as §1

[20] = target: Gal(b1-4)GlcNAc(b1-3)Gal(b1-3)GlcNAc
How it was run: as §1

[21] = target: Gal(b1-4)GlcNAc(b1-3)Gal(b1-4)Glc
How it was run: as §1

[22] = target: Gal(b1-4)GlcNAc(b1-3)Gal(b1-4)GlcNAc
How it was run: as §1

[23] = target: Gal(b1-4)GlcNAc(b1-3)Gal(b1-4)GlcNAc(b1-3)Gal(b1-4)GlcNAc
How it was run: as §1

[24] = target: Gal(b1-4)GlcNAc(b1-3)Gal(b1-4)[Fuc(a1-3)]GlcNAc(b1-3)Gal(b1-4)[Fuc(a1-3)]GlcNAc
How it was run: as §1

[25] = target: Gal(b1-4)GlcNAc(b1-3)GalNAc
How it was run: as §1

[26] = target: Gal(b1-4)GlcNAc(b1-3)[Gal(b1-4)GlcNAc(b1-6)]Gal(b1-4)GlcNAc
How it was run: as §1

[27] = target: Gal(b1-4)GlcNAc(b1-3)[GlcNAc(b1-6)]Gal(b1-4)GlcNAc
How it was run: as §1

[28] = target: Gal(b1-4)GlcNAc(b1-6)Gal(b1-4)GlcNAc
How it was run: as §1

[29] = target: Gal(b1-4)GlcNAc(b1-6)Gal(b1-4)GlcNAc(b1-6)GalNAc
How it was run: as §1

[30] = target: Gal(b1-4)GlcNAc(b1-6)GalNAc
How it was run: as §1

[31] = target: Gal(b1-4)GlcNAc(b1-6)[Gal(b1-3)]GalNAc
How it was run: as §1

Gal3S(b1-3)GalNAc = target: Gal3S(b1-3)GalNAc
How it was run: as §1

Gal3S(b1-3)GlcNAc = target: Gal3S(b1-3)GlcNAc
How it was run: as §1

[32] = target: Gal3S(b1-3)[Fuc(a1-4)]GlcNAc
How it was run: as §1

Gal3S(b1-4)Glc = target: Gal3S(b1-4)Glc
How it was run: as §1

Gal3S(b1-4)Glc6S = target: Gal3S(b1-4)Glc6S
How it was run: as §1

Gal3S(b1-4)GlcNAc = target: Gal3S(b1-4)GlcNAc
How it was run: as §1

B1: L-Selectin (Homo sapiens), P14151 (protein)
chain: MIFPWKCQSTQRDLWNIFKLWGWTMLCCDFLAHHGTDCWTYHYSEKPMNWQRARRFCRDNYTDLVAIQNKAEIEYLEKTLPFSRSYYWIGIRKIGGIWTWVGTNKSLTEEAENWGDGEPNNKKNKEDCVEIYIKRNKDAGKWNDDACHKLKAALCYTASCQPWSCSGHGECVEIINNYTCNCDVGYYGPQCQFVIQCEPLEAPELGTMDCTHPLGNFSFSSQCAFSCSEGTNLTGIEETTCGPFGNWSSPEPTCQVIQCEPLSAPDLGIMNCSHPLASFSFTSACTFICSEGTELIGKKKTICESSGIWSNPSPICQKLDKSFSMIKEGDYNPLFIPVAVMVTAFSGLAFIIWLARRLKKGKKSKRSMNDPY
glycan array binding signal (z-score) (Gal(b1-2)Gal): -0.164 | glycan array binding signal (z-score) (Gal(b1-3)Gal): -0.315 | glycan array binding signal (z-score) (Gal(b1-3)Gal(b1-4)GlcNAc): -0.402 | glycan array binding signal (z-score) (Gal(b1-3)GalNAc): -0.3 | glycan array binding signal (z-score) [1]: 0.037 | glycan array binding signal (z-score) [2]: -0.301 | glycan array binding signal (z-score) [3]: -0.192 | glycan array binding signal (z-score) (Gal(b1-3)GlcNAc): -0.136 | glycan array binding signal (z-score) [4]: -0.055 | glycan array binding signal (z-score) [5]: -0.36 | glycan array binding signal (z-score) [6]: -0.036 | glycan array binding signal (z-score) [7]: -0.335 | glycan array binding signal (z-score) [8]: -0.225 | glycan array binding signal (z-score) [9]: -0.222 | glycan array binding signal (z-score) [10]: -0.356 | glycan array binding signal (z-score) [11]: -0.356 | glycan array binding signal (z-score) [12]: -0.199 | glycan array binding signal (z-score) [13]: -0.352 | glycan array binding signal (z-score) [14]: -0.314 | glycan array binding signal (z-score) [15]: -0.154 | glycan array binding signal (z-score) [16]: -0.274 | glycan array binding signal (z-score) [17]: -0.158 | glycan array binding signal (z-score) (Gal(b1-4)Glc): -0.074 | glycan array binding signal (z-score) (Gal(b1-4)Glc6S): 0.942 | glycan array binding signal (z-score) (Gal(b1-4)GlcNAc): -0.06 | glycan array binding signal (z-score) [18]: -0.428 | glycan array binding signal (z-score) [19]: -0.126 | glycan array binding signal (z-score) [20]: 0.132 | glycan array binding signal (z-score) [21]: -0.253 | glycan array binding signal (z-score) [22]: -0.37 | glycan array binding signal (z-score) [23]: -0.047 | glycan array binding signal (z-score) [24]: -0.38 | glycan array binding signal (z-score) [25]: -0.251 | glycan array binding signal (z-score) [26]: -0.423 | glycan array binding signal (z-score) [27]: -0.383 | glycan array binding signal (z-score) [28]: -0.336 | glycan array binding signal (z-score) [29]: -0.296 | glycan array binding signal (z-score) [30]: -0.248 | glycan array binding signal (z-score) [31]: -0.227 | glycan array binding signal (z-score) (Gal3S(b1-3)GalNAc): -0.271 | glycan array binding signal (z-score) (Gal3S(b1-3)GlcNAc): -0.333 | glycan array binding signal (z-score) [32]: 3.08 | glycan array binding signal (z-score) (Gal3S(b1-4)Glc): 0.043 | glycan array binding signal (z-score) (Gal3S(b1-4)Glc6S): 0.516 | glycan array binding signal (z-score) (Gal3S(b1-4)GlcNAc): -0.266
